Experimental findings from PubChem BioAssay AID1645887 (National Center for Advancing Translational Sciences (NCATS), 2021) are described below.

SMILES strings stand for the structures. Where “and” joins values, the source holds several entries; their conditions need not be identical. Equal entries are not always repeated. About 40 (0.2%) of roughly 16,000 compounds were called active. Another 1% or so got no clear call; they are omitted. The call rests on the fitted dose curve; in most records, active means well fitted activation curve with a large enough effect; inconclusive means small, poorly fitted or top-dose-only effect, or another doubt; inactive means no such curve, though single readings can be large or run the other way. Some of the results follow.
On the % scale 0 is the no-effect control and ±100 the full control effect.

Chain of UniProt Q8WZA2 (Q8WZA2 whole entry, looked up): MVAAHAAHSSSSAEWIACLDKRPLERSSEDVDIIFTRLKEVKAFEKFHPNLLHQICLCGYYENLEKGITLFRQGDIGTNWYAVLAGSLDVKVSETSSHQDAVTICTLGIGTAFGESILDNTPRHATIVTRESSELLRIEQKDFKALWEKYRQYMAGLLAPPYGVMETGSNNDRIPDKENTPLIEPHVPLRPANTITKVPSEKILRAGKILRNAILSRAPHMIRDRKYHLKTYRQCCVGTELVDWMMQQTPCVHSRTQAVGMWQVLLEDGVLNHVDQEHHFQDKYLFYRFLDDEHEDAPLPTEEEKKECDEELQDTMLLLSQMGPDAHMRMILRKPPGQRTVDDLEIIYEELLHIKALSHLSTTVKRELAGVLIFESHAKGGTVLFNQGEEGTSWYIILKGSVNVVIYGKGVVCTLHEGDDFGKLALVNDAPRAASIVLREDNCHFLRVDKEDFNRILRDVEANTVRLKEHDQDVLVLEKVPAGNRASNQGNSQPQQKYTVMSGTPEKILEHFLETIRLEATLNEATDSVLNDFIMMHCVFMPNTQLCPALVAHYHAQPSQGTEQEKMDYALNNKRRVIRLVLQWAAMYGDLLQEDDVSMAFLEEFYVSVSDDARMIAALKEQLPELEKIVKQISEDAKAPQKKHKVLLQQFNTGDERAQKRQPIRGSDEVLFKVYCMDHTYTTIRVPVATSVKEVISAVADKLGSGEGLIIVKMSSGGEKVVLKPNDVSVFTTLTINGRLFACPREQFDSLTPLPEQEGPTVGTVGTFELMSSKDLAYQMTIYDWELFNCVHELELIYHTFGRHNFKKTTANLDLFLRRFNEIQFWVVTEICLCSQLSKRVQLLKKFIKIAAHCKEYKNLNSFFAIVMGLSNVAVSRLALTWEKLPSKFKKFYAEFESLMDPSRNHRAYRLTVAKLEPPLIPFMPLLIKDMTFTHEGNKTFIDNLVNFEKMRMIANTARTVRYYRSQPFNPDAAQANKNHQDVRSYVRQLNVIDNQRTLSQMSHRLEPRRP

The assay deals with Rap guanine nucleotide exchange factor 4 (Homo sapiens) (UniProt Q8WZA2). Briefly: Validation qHTS for agonist of cAMP-regulated guanine nucleotide exchange factor 4 (EPAC2).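 Further: exchange makes BODIPY-GDP fluorescence drop when released from Rap1B; series mostly up to about 150 µM.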 Conditions: EPAC2 Rap1B BODIPY-GDP exchange, fluorescence; activation: hits give high values. An excerpt:
Principle Investigator: Xiaodong Cheng Ph.D.
The University of Texas Medical Branch, […], TX
In multi-cellular eukaryotic organisms, the effects of cAMP are transduced by two ubiquitously-expressed intracellular cAMP receptors, the classic protein kinase A/cAMP-dependent protein kinase (PKA/cAPK) and the more recently discovered exchange protein directly activated by cAMP/cAMP-regulated guanine nucleotide exchange factor (EPAC/cAMP-GEF). Both PKA and EPAC are ubiquitously expressed in all tissues, and an increase in intracellular cAMP levels will lead to the activation of both PKA and EPAC. Therefore, careful dissections of the individual role and relative contribution of EPAC and PKA within the overall cAMP signaling in various model systems are critical for further elucidating the mechanism of cAMP signaling. To date no EPAC-specific antagonists and agonist, as well as isoform-specific agonists have been reported, and developing EPAC-specific pharmacological probes to determine the physiological functions that EPAC play in the overall cAMP-mediated signaling remains a major challenge within the research field. Furthermore, identified regulators of EPAC may lead to new mechanism-based therapeutic strategies specifically targeting the EPAC / cAMP-signaling components as EPAC has been implicated to play important roles in major human pathological conditions such as diabetes, heart disease, and cancer.
This qHTS will be used to screen the Molecular Libraries Small Molecule Repository (MLSMR) as a concentration-titration series using the NCGC unique quantitative screening (qHTS) platform to find activators for EPAC1. In addition, this assay will also be used as a counterscreen for the EPAC2 qHTS. This fluorescent based assay is developed and validated for EPAC1 that measures exchange using EPAC effector Rap1 complex with BODIPY-GDP, a GDP analog with a tethered fluorophores. Activators are identified by monitoring the change in fluorescence signal as the exchanged free BODIPY-GDP has a reduced fluorescence compared to Rap1-bound BODIPY-GDP. Increase in signal (activation) is the desired outcome for the EPAC1 agonist while no activity in this assay is desired for the EPAC2 agonist counterscreen.
[1] de Rooij, J., Zwartkruis, F. J., Verheijen, M. H., Cool, R. H., Nijman, S. M., Wittinghofer, A., and Bos, J.L. (1998) Nature 396, 474-477.
Briefly, three uL of reagents (100 nM EPAC2, 250 nM RAP1B-BODIPY-GDP, 50 uM GDP) were dispensed into a 1536-well Greiner black solid-bottom medium binding assay plate. Controls and test compounds (23 nL) were transferred to the plate via a Kalypsys pin tool equipped with a 1536-pin array. The plates were centrifuged at 1,000 rpm for 15 seconds followed by 5 minute incubation at room temperature. The assay plates were read at 5 minute intervals for 30 minutes in the ViewLux plate reader using 480nm excitation and 540nm emission filters. The results were normalized to the agonist positive control of 6.5 mM cAMP.
A general note: qHTS replaces the single test concentration by a dilution series.
As for `COc1cc(-c2cc(C)c3c(OC)ccc(OC)c3n2)cc2c1OCCN(C(=O)Cn1nc(C)cc1C)C2`, the activation was inactive: -9.59%. Under `C[C@]12C=CC(=O)C=C1[C@@H](F)C[C@@H]1[C@@H]2[C@@H](O)C[C@@]2(C)[C@H]1CC[C@]2(O)C(=O)CO` stands inactive: 2.95% and inactive: -20.9%. Take `CC1CC2C3CCC4=CC(=O)C=C[C@@]4(C)[C@]3(F)C(O)C[C@]2(C)[C@]1(O)C(=O)CO` (some centres not stated): the activation is inactive: -3.09% and inactive: 6.85%. In the case of `COCC(=O)N1CCC[C@@]2(CCN(Cc3cc(C(F)(F)F)cc(C(F)(F)F)c3)C2)C1`, the activation was inactive: -30%.

Take `Cc1c(N)nc([C@H](CC(N)=O)NC[C@H](N)C(N)=O)nc1C(=O)N[C@H](C(=O)N[C@H](C)[C@@H](O)[C@H](C)C(=O)N[C@H](C(=O)NCCc1nc(-c2nc(C(=O)NCCCCN=C(N)N)cs2)cs1)[C@@H](C)O)[C@@H](O[C@@H]1O[C@@H](CO)[C@@H](O)[C@H](O)[C@@H]1O[C@H]1O[C@H](CO)[C@@H](O)[C@H](OC(N)=O)[C@@H]1O)c1cnc[nH]1`: the activation was inactive: 8.79% and inactive: -2.56%.

Turning to `O=C1CC2(CCCC2)CC(=O)N1CCNC[C@H]1COc2ccccc2O1`, the activation is inactive: 1.04%. Turning to `CN1[C@@H](CC(=O)c2ccccc2)CCC[C@H]1C[C@H](O)c1ccccc1`, the activation is inactive: 4.81% and inactive: 6.26% and inactive: -27.2%. In the case of `O=C(NCC1Cc2cc(F)cc(-c3cnccn3)c2O1)c1cccc(Cl)c1` (configuration not stated), the activation was inactive: -1.77%. With `Cn1cccc1C(=O)N1CCC2(CCCN(c3ccccn3)C2)CC1` the figure was inactive: -10.5%; with `c1ccc2[nH]c(-c3cscn3)nc2c1`, inactive: 8.67% and inactive: -36.9%.

In the case of `N#Cc1cccc(-c2nc(Nc3ccccc3)c3ccccc3n2)c1`, the activation is inactive: 8.9%.

Take `OC[C@@H](O)[C@@H](O[C@@H]1O[C@H](CO)[C@H](O)[C@H](O)[C@H]1O)[C@H](O)[C@@H](O)CO`: the activation is inactive: 4.55%. `COc1ccc(-c2ccc(C(=O)N3CCc4c(cnc(C)c4CNS(=O)(=O)N(C)C)C3)o2)cc1`: the activation was inactive: 8.58%. Under `COc1ccc2[nH]cc(CCNc3ncnc4ccc(-c5ccc(C(=O)N(C)C)cc5)cc34)c2c1` stands inactive: -29.2%; under `O=C1CCC[C@@H]2[C@H](Cc3ccccc3)[C@@H](O)C[C@@H]3CCN1[C@@H]32`, inactive: -12.2%. Take `O=S(=O)(c1ccccc1)N1CCC2(CC1)CN(Cc1ccccc1)C2`: the activation was inactive: -1.14%. On to `CC(=O)C(C)=O`, for which the activation was inactive: -20.8%.
